Laboratory results reported in PubChem BioAssay AID1347073 (National Center for Advancing Translational Sciences (NCATS), 2019).
Screen size: about 45,000 compounds; about 200 (0.44%) were called active. Not shown: some 7% with an inconclusive outcome. The call rests on the fitted dose curve; in most records, active means well fitted activation curve with a large enough effect; inconclusive means small, poorly fitted or top-dose-only effect; inactive means no such curve, though single readings can be large or run the other way. The list shows a part of the results.

assay: qHTS of TDP-43 Inhibitors: NCGC Sytravon Library Screen; conditions: yeast TDP-43 toxicity rescue, BacTiter-Glo growth, 24 h; series mostly up to 46.1 µM; growth rescue (activation): at the top concentration; further: 0% is about no effect; nearly all actives have a fitted effect of over 55% in size
Outline: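 TDP-43-expressing yeast, pregrown in raffinose, seeded at OD600 0.02 in galactose medium with compound for 24 hr at 30 deg C. Growth read by BacTiter-Glo luminescence, so rescue of toxicity appears as activation.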

Row | SMILES | growth rescue (activation)
1 | CC(=O)N/C(=C\c1ccc(Br)s1)C(=O)O | inactive: 1.59%
2 | O=C(COC(=O)c1ccc(O)cc1)Nc1ccccc1 | inactive: 9.41%
3 | CCOC(=O)N1CCC(N(CCN(C)C)C(=S)Nc2cccc(C)c2)CC1 | inactive: 17.1%
4 | COc1ccc(N(CC(=O)Nc2c(C)n(C)n(-c3ccccc3)c2=O)S(=O)(=O)c2ccc(C)cc2)cc1 | inactive: -21.2%
5 | Cc1ccccc1OCCNC(=O)/C=C/c1ccccc1 | inactive: -19.2%
6 | CCOc1cc(/C=C2\CN(CC)C/C(=C\c3ccc(O)c(OCC)c3)C2=O)ccc1O | inactive: 7.9%
7 | O=C(Nc1ccc(Br)cc1)C1C2C=CC3(O2)C1C(=O)N(CCN1CCCCC1)C3C(=O)NC1CCCCC1 (stereo not drawn) | inactive: 11.9%
8 | Cc1ccc(CN2CCN(Cc3cccn3-c3nccs3)CC2CCO)cc1 (stereo not drawn) | inactive: 6.74%
9 | CCOc1ccc(NC(=O)CN(C)C(=O)C2COc3ccccc3O2)cc1OCC (stereo not drawn) | inactive: -11.9%
10 | Cc1ccccc1NS(=O)(=O)c1cc(C(=O)N2CCCC2)ccc1Cl | inactive: 1.44%
11 | CCOC(=O)C1(Cc2ccccc2Cl)CCN(Cc2csc(C(C)=O)c2)CC1 | inactive: 5.39%
12 | COc1cccc(-c2nc(-c3ccc(Br)o3)no2)c1 | inactive: 5.15%
13 | COc1ccc(CC(=O)NCC2CCCN(Cc3cccc(SC)c3)C2)cc1 (stereo not drawn) | inactive: 0.87%
14 | Cc1ccc(NC(=O)C2C3C=CC4(O3)C2C(=O)N(CCCN2CCCC(C)C2)C4C(=O)NC2CCCCC2)cc1 (stereo not drawn) | inactive: 8.1%
15 | O=C(CSc1nnc2ccccn12)Nc1cccc(-c2nc3ccccc3s2)c1 | inactive: 24.5%
16 | CCOc1ccccc1NC(=O)Cn1nnc(C(=O)NCc2cccs2)c1N | inactive: -7.39%
17 | O=C(NCc1ccc(N2CCCC2=O)cc1)c1cc(COc2c(F)cccc2F)on1 | inactive: 24.1%
18 | O=C(NCC1CCCO1)c1cc([N+](=O)[O-])ccc1Cl (stereo not drawn) | inactive: 12.7%
19 | CCN(CC)NC(=O)Nc1ccccc1 | inactive: -20.4%
20 | CN(C)S(=O)(=O)c1ccc(Cl)c(NC(=O)CN2CCc3ccccc3C2)c1 | inactive: 3.14%
21 | Cc1cccc(C(=O)Nc2ccc(C(=O)N3CCCCC3C)cc2)c1 (stereo not drawn) | inactive: 7.07%
22 | Cc1ccc(S(=O)(=O)Nc2cc(C)c(O)cc2C)cc1 | inactive: 3.49%
23 | CC(=O)c1cc(C(=O)Nc2ccc3ccccc3c2)c(C)o1 | inactive: 9.37%
24 | O=C(CSc1nc2ccccc2[nH]1)Nc1nc(-c2ccc(Br)cc2)cs1 | inactive: 17%
25 | O=C(CSc1nc2ccccc2c(=O)[nH]1)Nc1ccc([N+](=O)[O-])cc1 | inactive: 2.12%
26 | CC1CN(c2ccc([N+](=O)[O-])c(NCCOc3ccccc3)c2)CC(C)N1 (stereo not drawn) | inactive: -3.09%
27 | Cc1ccc(NC(=O)c2ccco2)c(NC(=O)CN2C(=O)c3ccccc3C2=O)c1 | inactive: 5.94%

Row | SMILES | growth rescue (activation)
28 | O=C(NCCSc1ccccc1)c1ccc(Br)cc1 | inactive: 17.6%
29 | Cc1ccc(-n2c(O)c(C=Nc3ccccc3-c3n[nH]c(=S)[nH]c3=O)c3ccccc3c2=O)cc1C | inactive: 5.52%
30 | Cn1nc(C(=O)NNC(=O)COc2ccccc2)c2ccccc2c1=O | inactive: 1.21%
31 | O=C(Nc1ccc(S(=O)(=O)NCc2ccco2)cc1)c1ccc(F)cc1 | inactive: -20.7%
32 | CC(=O)NC1CC2CCCC(C1)N2C(=O)Nc1cccc(C)c1 (stereo not drawn) | inactive: -2.87%
33 | Brc1ccccc1OCCOc1cccc2cccnc12 | inactive: 26.5%
34 | Cn1c(SCC(=O)NC2CC2)nnc1-c1ccccc1Cl | inactive: 7.68%
35 | Cc1ccc(C(=O)N/N=C/c2sc(=O)n(Cc3cccc(C(=O)O)c3)c2Cl)cc1 | inactive: 10.4%
36 | O=C1CC(c2ccco2)CC(O)=C1C=NCCN1CCN(C(=O)Nc2ccc(Cl)cc2)CC1 (stereo not drawn) | inactive: -7.65%
37 | C=CCn1c(SCC(=O)Nc2ccc(O)cc2)nc2sc(CC)cc2c1=O | inactive: 8.41%
38 | CC(C)c1nc(SCC(=O)Nc2cccc3ccccc23)n[nH]1 | inactive: 13.5%
39 | COc1ccc(-c2c(=O)n(OCc3nc4ccccc4[nH]3)c3ccccc3[n+]2[O-])cc1 | inactive: 13.4%
40 | COC(=O)c1nn(-c2nc(-c3cccc(OC)c3)cc(C(F)(F)F)n2)cc1[N+](=O)[O-] | inactive: -4.68%
41 | Cc1c(NC(N)=O)c(=O)n(-c2ccccc2)n1C | inactive: 6.45%
42 | N#Cc1cccc(S(=O)(=O)NNC(=O)C23CC4CC(CC(C4)C2)C3)c1 | inactive: 14%
43 | CCOC(=O)C(=O)C1=CN(Cc2ccccc2)C=C(C#N)C1 | inactive: 11.4%
44 | Cc1ccccc1-n1ccnc1SCC(=O)Nc1cccc(S(=O)(=O)NC2=NCCC2)c1 | inactive: 4.54%
45 | Cc1cccc(C(=O)N[C@H](C(=O)OCC(=O)NC2CCS(=O)(=O)C2)C(C)C)c1 (stereo partly drawn) | inactive: -6.16%
46 | CCN(CC)S(=O)(=O)c1cccc(NC2=NCC(C)S2)c1 (stereo not drawn) | inactive: 9.18%
47 | C=CCNC(=O)C1CCCN(S(=O)(=O)c2ccc(-n3cnnn3)cc2)C1 (stereo not drawn) | inactive: 15.1%
48 | O=C(Nc1nc2ccccc2[nH]1)c1cccc([N+](=O)[O-])c1 | inactive: -1.1%
49 | O=C(CNc1ccc2ccccc2c1)N/N=C/c1ccccn1 | inactive: 9.12%
50 | O=C(CCc1nc2ccccc2c(=O)[nH]1)OCc1cccc(C(F)(F)F)c1 | inactive: 27.5%
51 | COc1ccc2c(c1)c(C(O)CN1CCC(Cc3ccccc3)CC1)c(C)n2C (stereo not drawn) | inactive: 24.3%
52 | COc1ccc(/C=C/c2nc(-c3ccccc3)cc(=O)[nH]2)cc1 | inactive: 17.7%
53 | COc1ccc(S(=O)(=O)N2CCN(c3cnccn3)CC2)cc1OC | inactive: -19.8%
